# Source: PubChem BioAssay AID1345083 (National Center for Advancing Translational Sciences (NCATS), 2018)
# The whole screen tested about 94,000 compounds, of which about 6,200 (6.6%) were called active. This list was built around the results that the source calls inconclusive (neither active nor inactive); the mix of calls is not that of the screen. Calls come from the whole dose curve; as a rule, active = well fitted inhibition curve with a large enough effect; inconclusive = small, poorly fitted or top-dose-only effect; inactive = flat fitted curve, though single readings scatter. A potency beside an inconclusive call is a rough fit, not a confirmed value.
# Assay: Cytotoxic Profiling in HEK 293 Cell Line of Diverse Libraries Using Quantitative High-Throughput Screening; note: nearly all actives have a fitted effect of over 60% in size
# Conditions: HEK 293 viability, ATP luminescence (CellTiter-Glo), 48-72 h; series mostly up to 115 µM
# Outline: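 HEK 293 cells seeded at 250 cells/well were exposed to compound for 48 or 72 hr at 37 degree Celsius. Viability taken as ATP content by CellTiter-Glo luminescence.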
# Potency is the fitted concentration of half-maximal effect; tags give direction and shape of the fitted curve.
row,SMILES,Potency
1,COc1cccc(S(=O)(=O)N2CCC3(CC2)C(=O)NN=C3c2ccccn2)c1,inactive
2,O=C1c2cnc(-c3ccc(CO)cc3)nc2OCCN1c1cccc(C(F)(F)F)c1,"inconclusive: 56.2 µM [inhibitor, partial curve, poor fit]"
3,Cc1nc(N2CCC(C(=O)NCCC3=CCCCC3)CC2)cc(C(F)(F)F)n1,"inconclusive: 11.2 µM [inhibitor, full curve, poor fit]"
4,CCn1cc(CN(C)C(=O)c2cc(-c3ccc(OC)cc3)cn2CC)c(C)n1,active: 35.5 µM
5,O=C(NC1CCc2ccccc21)c1ccc(CN2C(=O)NC3(CCOCC3)C2=O)cc1 (configuration not stated),"inconclusive: 79.4 µM [inhibitor, partial curve]"
6,O[C@H]1[C@H](NCC2CCCC2)[C@@H](C2CCCCC2)C[C@H]1O,"inconclusive: 126 µM [inhibitor, partial curve, poor fit]"
7,O=C(C1CCCC1)N1CC2(CCCN(Cc3ccc(Cl)cc3)C2)Cc2ccccc21 (configuration not stated),active: 39.8 µM
8,COc1ccc(CN2CCOc3nc(-c4ccc(F)cc4F)ncc3C2=O)cc1,"inconclusive: 100 µM [inhibitor, partial curve]"
9,CC(C)(C)C(=O)NC1CCN(C(=O)c2ccc(-c3cccs3)cc2)CC1,"inconclusive: 56.2 µM [inhibitor, partial curve, poor fit]"
10,O=C(NCc1ccc(F)cc1)C1CCCCN1Cc1ccc(-c2ccsc2)cc1 (configuration not stated),active: 39.8 µM
11,CCn1cc(-c2ccc(Cl)cc2)cc1C(=O)NCCN1CCOCC1,"inconclusive: 70.8 µM [inhibitor, partial curve, poor fit]"
12,O=C1COCC2(CN1Cc1c(F)cccc1Cl)CN(c1ccc(C(F)(F)F)cn1)C2,"inconclusive: 56.2 µM [inhibitor, partial curve, poor fit]"
13,NC(=O)Cc1c[nH]c2ncc(-c3cccc(C(F)(F)F)c3)cc12,"inconclusive: 63.1 µM [inhibitor, partial curve]"
14,O=C(Nc1ccc(C2(C(=O)N3CCCCCC3)CCC2)cc1)C1CC1,"inconclusive: 39.8 µM [inhibitor, full curve]"
15,O=C(c1cccc(Cl)c1)N1CCC2(CC1)CCN(Cc1cccs1)c1ccccc1O2,active: 28.2 µM
16,COCCNC(=O)[C@H]1C[C@H](Oc2ccccc2)CN1Cc1ccc2[nH]ccc2c1,active: 10 µM
17,CC1CCN([C@@H]2[C@H](O)[C@H](CO)O[C@@H]2CNC(=O)N2CCOCC2)CC1,inactive
18,CN(C)c1ccc(C(=O)N2CCC(n3cc(-c4nc(-c5ccccc5)no4)nn3)C2)cc1 (configuration not stated),active: 44.7 µM
19,O=c1c2c(n(Cc3cccnc3)n1CCc1ccccc1)CN(Cc1cccc(O)c1)CC2,inactive
20,COCC(=O)NC1CCC12CCN(S(=O)(=O)c1cccc(OC)c1)CC2 (configuration not stated),inactive
21,CN1CCN(c2nc3c(s2)CN(C(=O)CCC2CCCC2)CC3)CC1,"inconclusive: 31.6 µM [inhibitor, partial curve, poor fit]"

row,SMILES,Potency
1,O=C(c1ccc(F)cc1)N1CCn2c(nnc2C2CC2)C1,inactive
2,COc1ccccc1Oc1c(CCC(=O)NCC(C)C)c(C)nn1-c1ccc(F)cc1,"inconclusive: 79.4 µM [inhibitor, partial curve]"
3,CCOc1cc(C(=O)N2CCCN(c3cc(-c4ccc(F)cc4)[nH]n3)CC2)cc(OCC)c1OCC,"inconclusive: 89.1 µM [inhibitor, single point]"
4,CCN(CC1CCOCC1)C(=O)Cc1cnc2c(C)cccn12,"inconclusive: 63.1 µM [inhibitor, partial curve, poor fit]"
5,CC(C)(C)C(=O)N1CCCN(Cc2ccc3c(c2)OCO3)c2ccccc21,"inconclusive: 12.6 µM [inhibitor, partial curve, poor fit]"
6,CCOc1ccc2c(n1)CCN(C(=O)C1(c3ccccc3)CC1)C2,inactive
7,O=C(c1c[nH]c(=O)cn1)N1C[C@H](CO)C[C@H](CN2CCOCC2)C1,inactive
8,COc1ccccc1NC(=O)C1c2ccccc2C(=O)N(Cc2ccccc2)C12CCCC2 (configuration not stated),"inconclusive: 39.8 µM [inhibitor, full curve, poor fit]"
9,O=c1n(-c2ccncc2)nc2n1CCN(Cc1ccc(F)cc1)C2,"inconclusive: 20 µM [inhibitor, full curve, poor fit]"
10,CS(=O)(=O)N[C@@H]1[C@@H](NC(=O)c2scc3c2CCCC3)[C@H]2CCO[C@H]21,inactive
11,O=C(Nc1cccc(F)c1)c1cc2n(n1)CC(c1ccc(Br)cc1)OC2 (configuration not stated),"inconclusive: 89.1 µM [inhibitor, partial curve, poor fit]"
12,Cn1cc(-c2cnc3[nH]cc(CC(=O)N4CCCC4)c3c2)cn1,inactive
13,O=C(NC1CCN(c2nccc(Nc3ccccc3Cl)n2)CC1)c1ccccc1F,"inconclusive: 50.1 µM [inhibitor, partial curve, poor fit]"
14,Cc1ccc(CN2CCc3oc(C)c(C(=O)NC4CCCC4)c3C2)cc1,"inconclusive: 50.1 µM [inhibitor, partial curve, poor fit]"
15,COc1ccccc1CC(=O)N1CCCc2ncc(C(=O)Nc3ccccn3)cc21,"inconclusive: 100 µM [inhibitor, partial curve, poor fit]"
16,O=C(NCC1CC1)c1ccc2nnc(-c3cccc(C(F)(F)F)c3)n2c1,"inconclusive: 50.1 µM [inhibitor, partial curve]"
17,COc1ccc(C(CC(=O)N2CCCC2)c2c[nH]c3ccccc23)cc1 (configuration not stated),"inconclusive: 22.4 µM [inhibitor, full curve]"
18,O=C(NC1CCCN(CCn2nc3n(c2=O)CCCC3)C1)c1ccc(Cl)nc1 (configuration not stated),inactive
19,Cc1nncn1C1CCN(S(=O)(=O)c2ccccc2Cl)CC1,inactive
20,O=C(c1ccccc1)N1CCCN(c2ccnc3ccnn23)CC1,"inconclusive: 126 µM [inhibitor, single point]"
21,Cc1nn(-c2ccccc2)c2c1C(C)N(C1CCCN(C(=O)Cc3ccccn3)C1)C2=O (configuration not stated),"inconclusive: 56.2 µM [inhibitor, partial curve, poor fit]"
